Data taken from the supplement of paper PMC10126150.
Sequences with one replicate were seen in a single cluster, so their values are uncertain.

System: ATP
Assay: switch fluorescence ratio, 500 uM ATP over buffer (Cy3 cluster intensity, sum of 5 cycles each) (fold (ratio)); higher = stronger signal-on switching upon ATP binding; sequences stand for … in TCGTCGGCAGCGTCAGATGTGTATAAGAGACAGTTTTTTTTTTTTTTTTTTTTTTTTT…TC
Details: aptamer strand: ATP DNA aptamer (quencher-CACCTGGGGGAGTATTGCGGAGGAAGG + anchor), 100 nM annealed; ATP concentration: 500 uM; one replicate
Summary of the method: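 Cy3-labelled switching-strand clusters on a modified Illumina MiSeq flow-cell were annealed to 100 nM quencher-labelled ATP aptamer, imaged in selection buffer, then imaged after 15 min with 500 uM ATP at 22 °C. Five buffer/ATP cycles ran, with NaOH stripping and re-annealing between them. The fluorescence ratio is summed target-cycle over summed buffer-cycle Cy3 intensity per cluster, averaged per switch-domain sequence. Clusters outside 100-1000 RFU were excluded.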
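Also: ATP exposure 15 min at 22 °C before imaging.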

Row | Sequence | switch fluorescence ratio
1 | GGGTGTTCGA | 1.03
2 | TAGTATGTAT | 0.966
3 | AAGGTAGTCA | 0.981
4 | ACTTATATTG | 1.06
5 | GAGAGATTCT | 1.01
6 | GAGTTAGATG | 0.949
7 | CTTATAATAA | 1.02
8 | TTATTATGCT | 1.04
9 | GGACCACCGA | 1.05
10 | CTAGAGAGT | 1
11 | TTGGACTCGT | 0.982
12 | CGCTAGCGCA | 1
13 | GTGGGGGGT | 0.99
14 | TCCCTGGGGT | 1.15
15 | AGCTGCACCG | 1.02
16 | ATACGTGCGG | 0.994
17 | GTGGGCGTCA | 0.982
18 | GTCGGTGTTT | 0.99
19 | GTTATCTCCA | 0.976
20 | ACGGATTCGG | 1.01
21 | GGCCACTGAA | 1.01
22 | CAATCCTAAA | 0.959
23 | AGAGAGCCGA | 1.02

Row | Sequence | switch fluorescence ratio
24 | CGGCTGAAGC | 1.05
25 | CATGAAAAG | 1.01
26 | TCTATATCCT | 1.03
27 | AGAACAATCT | 0.98
28 | AATTATCTA | 0.974
29 | TTACTCTTG | 1.14
30 | CTGATGGATG | 1.03
31 | TGAGTTCCGA | 1.03
32 | AGTTCCCAGT | 0.999
33 | TTGGGTCCG | 0.992
34 | CACACACTCC | 1.5
35 | CGTTTGTTT | 0.996
36 | TTGCTGGCGA | 0.988
37 | ATATAGTGAC | 1.01
38 | CCTGACAGCT | 1.1
39 | ATTGATTAT | 1.02
40 | GGCCGACGGG | 1.03
41 | ATATAACTTG | 0.965
42 | AGTAGGAAAG | 1.01
43 | CCCTATTCAA | 1.03
44 | CCATTTCAG | 1.01
45 | AGCTGCGGCG | 0.986
46 | ACTCTTACTC | 1.28

Row | Sequence | switch fluorescence ratio
47 | AGTACCCACT | 1.35
48 | CTCAGGTTGA | 1.07
49 | GCGGACCCAT | 1.07
50 | GACGACATTG | 1.02
51 | GCTGTTATTT | 0.964
52 | ACATTTATAC | 1.14
53 | TATTCTTCGG | 0.995
54 | TTCTAATTTC | 0.947
55 | GCCTCATTC | 0.935
56 | GCTGCATTAT | 1.19
57 | GGGAACCAGA | 1.04
58 | CCGGTTTAC | 2.7
59 | TTCATCGTGG | 1
60 | TTACTCCAGA | 1.1
61 | AAGATTAGTA | 1.03
62 | ATGAACAGTC | 0.979
63 | AGGTATGTCC | 1.05
64 | TTCTTAACGG | 0.964
65 | AATTGCAGTG | 1.04
66 | GACTGCTG | 0.97
67 | CTGGAGCCT | 1.03
68 | AATTGCTTTG | 0.984
69 | AAGGTGTGTC | 0.937

Row | Sequence | switch fluorescence ratio
70 | TAACTTCGG | 1.02
71 | TGGTGGGTC | 0.963
72 | TTAGGGCTTC | 0.955
73 | AATCTTCCAT | 1.03
74 | TAGGGGTTTA | 0.977
75 | TAAAACAGCC | 0.983
76 | CAGTCACTAT | 1.06
77 | CTTGGGATTG | 0.985
78 | CCGTAGATGT | 1.47
79 | ATATCATACT | 1.02
80 | CCCAACTAAG | 1
81 | CTGGCATAGG | 0.969
82 | AAACTTATTG | 0.973
83 | ATGGCTGGTG | 1.01
84 | TGGGTAGCTT | 0.996
85 | TGGTGCTAGT | 1.01
86 | CATTTGGAAA | 1
87 | GTGTGACGTA | 1.07
88 | TAAAATATAG | 1.05
89 | GTTCAAAGTT | 0.984
90 | TGGGCGAAGT | 0.979
91 | TTCTCCGTTT | 1.1
92 | TAATGCCTCG | 0.994

Row | Sequence | switch fluorescence ratio
93 | CGCCTTTGAA | 1
94 | AAAAGGCC | 0.991
95 | TTTCCCCGTT | 1.09
96 | TATTGTTCAT | 1.01
97 | AAGTGGGTG | 0.995
98 | TTTAGGATGG | 0.997
99 | ACTTTTCATG | 1.02
100 | TTCTAAAGCT | 1.09
101 | AGTGCAACCT | 1.09
102 | GGATCCGGCA | 1.07
103 | CCGGCTAATT | 1.17
104 | GGGCAACCTA | 1.02
105 | GGTGCTGAAA | 0.993
106 | TAAGACAAGA | 0.975
107 | AACACGAGGC | 1.05
108 | TAAGGCTATT | 1.01
109 | TTGCAAAAGA | 0.994
110 | AGTACCACGC | 1.1
111 | CGCTCATCAG | 0.986
112 | ATTTTGCCGA | 0.989
113 | AAGCGGCTGA | 1.06
114 | CCGTGGGGTG | 1.08
115 | GGTTGATGAA | 0.969

Row | Sequence | switch fluorescence ratio
116 | CATAAGCAAC | 2.48
117 | TAGTGTCCA | 1.02
118 | CAGCATACTA | 2.27
119 | GCGGGATTTC | 1.06
120 | CTCATGGCG | 1.14
121 | ATATCTCTTG | 0.987
122 | AGGTCGCGTG | 1.04
123 | ATTGGAATGA | 1.01
124 | CAGTTACAGT | 1.02
125 | CGTCGTGCGC | 0.991
126 | GGTTTAAGCT | 1.02
127 | GGTCCCATCT | 0.965
128 | GGAGTTAGAT | 0.991
129 | GAGAAAAAGC | 1.04
130 | CTCTATACAC | 1.18
131 | CGTTGTCTAA | 0.981
132 | GCGACAACAT | 1.12
133 | GTAAAAGAAA | 0.946
134 | CGGCTGAGAC | 1.13
135 | CCATGGTTAG | 0.991
136 | CGACTCCAAG | 1
137 | ACGCAGTTAC | 4.15
138 | GTCGAGGGGT | 0.984

Row | Sequence | switch fluorescence ratio
139 | GACTCCTGGA | 1.05
140 | AGGCTATGGA | 0.953
141 | TCCGTTGAGT | 1.02
142 | TAATCGGATT | 0.961
143 | ATGAATGGG | 0.963
144 | CAAATTATAG | 0.969
145 | GGCTTTTTCG | 1.07
146 | CCTATTTAAG | 0.983
147 | TCGCGCCTGG | 1.09
148 | TTGAAAACCA | 1.06
149 | AGATGCCTAT | 0.929
150 | GTCAAATTTC | 1.01
151 | TCGAAGTGCT | 0.996
152 | GTGTTATTAA | 1.05
153 | CGTTCTGCGT | 0.991
154 | TAGGGTGTCC | 0.973
155 | TTGGCTAGGG | 1.02
156 | AACGAAGACC | 1.02
157 | TGGGTAGAT | 0.975
158 | ACAATGGGGG | 0.997
